Data as given in the BET-seq Pho4 binding data (Le et al. 2018).
The list shows a part of the results. These are noisy estimates, calculated here from bound and input reads.

biological target: T1, Pho4 (S. cerevisiae) (UniProt P07270); experiment: relative binding free energy (BET-seq); higher = weaker binding; settings: reference: library average
T1 sequence: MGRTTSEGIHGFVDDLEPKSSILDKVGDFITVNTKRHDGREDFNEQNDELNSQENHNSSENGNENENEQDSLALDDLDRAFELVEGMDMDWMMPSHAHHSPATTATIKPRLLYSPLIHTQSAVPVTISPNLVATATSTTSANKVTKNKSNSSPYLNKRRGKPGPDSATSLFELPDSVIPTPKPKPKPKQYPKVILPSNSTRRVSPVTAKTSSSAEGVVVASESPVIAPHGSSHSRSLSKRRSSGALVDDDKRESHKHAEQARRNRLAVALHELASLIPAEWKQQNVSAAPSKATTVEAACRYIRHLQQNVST

Question: For GATAGCACGTGGGTGT, which “relative binding free energy” value is on record?
Answer: -0.21 kcal/mol

Question: TTGGGCACGTGGAGTG was tested. Which “relative binding free energy” value did it give?
Answer: -0.1 kcal/mol

Question: How did the “relative binding free energy” value turn out when AGAGGCACGTGGGAAA was run?
Answer: -0.14 kcal/mol

Question: GTACTCACGTGGTGGC was tested. Which “relative binding free energy” value did it give?
Answer: 0.37 kcal/mol

Question: TTTCCCACGTGTGGGG was tested. Which “relative binding free energy” value did it give?
Answer: -0.03 kcal/mol

Question: For GTCTGCACGTGGTTAT, which “relative binding free energy” value is on record?
Answer: 0.03 kcal/mol

Question: How did the “relative binding free energy” value turn out when GGATTCACGTGATTAG was run?
Answer: 0.34 kcal/mol

Question: Which “relative binding free energy” value does the source give for CATGGCACGTGTGGTC here?
Answer: -0.11 kcal/mol

Question: For CGTTTCACGTGGGTGC, which “relative binding free energy” value is on record?
Answer: 0.13 kcal/mol

Question: For TGGGACACGTGGGTTA, which “relative binding free energy” value is on record?
Answer: -0.05 kcal/mol

Question: How did the “relative binding free energy” value turn out when ACTGACACGTGGAGTG was run?
Answer: 0.03 kcal/mol

Question: For AGGATCACGTGGCGGT, which “relative binding free energy” value is on record?
Answer: 0.02 kcal/mol

Question: Which “relative binding free energy” value does the source give for CGGATCACGTGGGAAT here?
Answer: 0.2 kcal/mol

Question: Which “relative binding free energy” value does the source give for GGGGCCACGTGTTTCG here?
Answer: 0.09 kcal/mol

Question: How did the “relative binding free energy” value turn out when TCTAGCACGTGGTGAG was run?
Answer: -0.15 kcal/mol

Question: CTTCACACGTGGTTGT was tested. Which “relative binding free energy” value did it give?
Answer: 0.14 kcal/mol

Question: With TAAGTCACGTGCGTAG as the sequence, how does the “relative binding free energy” value read?
Answer: 0.22 kcal/mol

Question: For TAGTGCACGTGGGATG, which “relative binding free energy” value is on record?
Answer: -0.19 kcal/mol

Question: Which “relative binding free energy” value does the source give for TTGTACACGTGTTAGG here?
Answer: 0.13 kcal/mol

Question: GGGTTCACGTGGCTTA was tested. Which “relative binding free energy” value did it give?
Answer: 0.25 kcal/mol

Question: GAGGGCACGTGGGTTA was tested. Which “relative binding free energy” value did it give?
Answer: -0.12 kcal/mol

Question: For AGGGGCACGTGTGAAT, which “relative binding free energy” value is on record?
Answer: -0.04 kcal/mol

Question: TCGGGCACGTGGTAGA was tested. Which “relative binding free energy” value did it give?
Answer: -0.05 kcal/mol

Question: For TACTACACGTGGTAGG, which “relative binding free energy” value is on record?
Answer: 0.03 kcal/mol

Question: How did the “relative binding free energy” value turn out when TGTCACACGTGGGTAT was run?
Answer: -0.1 kcal/mol

Question: For AATTTCACGTGGCTTA, which “relative binding free energy” value is on record?
Answer: 0.22 kcal/mol

Question: With GGTTACACGTGAGTAC as the sequence, how does the “relative binding free energy” value read?
Answer: 0.43 kcal/mol

Question: How did the “relative binding free energy” value turn out when CTTCACACGTGGTGTG was run?
Answer: 0.07 kcal/mol

Question: For TGAAGCACGTGTGCTG, which “relative binding free energy” value is on record?
Answer: -0.07 kcal/mol

Question: Which “relative binding free energy” value does the source give for TCCGGCACGTGAGGGG here?
Answer: 0.14 kcal/mol

Question: Which “relative binding free energy” value does the source give for ATAAGCACGTGGGGAT here?
Answer: -0.22 kcal/mol

Question: For GGGCACACGTGGCGGG, which “relative binding free energy” value is on record?
Answer: -0.01 kcal/mol

Question: Which “relative binding free energy” value does the source give for TGCGGCACGTGGTGGA here?
Answer: -0.12 kcal/mol

Question: For GATGTCACGTGTTCTT, which “relative binding free energy” value is on record?
Answer: 0.15 kcal/mol

Question: TGTTGCACGTGATGCT was tested. Which “relative binding free energy” value did it give?
Answer: -0.11 kcal/mol

Question: For TGGCTCACGTGTTAAT, which “relative binding free energy” value is on record?
Answer: 0.31 kcal/mol

Question: With CTATGCACGTGTGGAG as the sequence, how does the “relative binding free energy” value read?
Answer: 0.01 kcal/mol

Question: With GGTAACACGTGAATTG as the sequence, how does the “relative binding free energy” value read?
Answer: 0.15 kcal/mol

Question: For TTTTCCACGTGGTGCG, which “relative binding free energy” value is on record?
Answer: -0.07 kcal/mol

Question: CGGATCACGTGTCGTG was tested. Which “relative binding free energy” value did it give?
Answer: 0.14 kcal/mol

Question: Which “relative binding free energy” value does the source give for GTATACACGTGAAGTA here?
Answer: 0.37 kcal/mol

Question: How did the “relative binding free energy” value turn out when TTGATCACGTGGACAT was run?
Answer: 0.28 kcal/mol

Question: How did the “relative binding free energy” value turn out when CAAGTCACGTGTGATT was run?
Answer: 0.21 kcal/mol

Question: Which “relative binding free energy” value does the source give for GGGTCCACGTGCCGGT here?
Answer: 0.11 kcal/mol

Question: TTGATCACGTGTAGTA was tested. Which “relative binding free energy” value did it give?
Answer: 0.21 kcal/mol

Question: How did the “relative binding free energy” value turn out when TACTTCACGTGATTGT was run?
Answer: 0.18 kcal/mol

Question: Which “relative binding free energy” value does the source give for ATGCGCACGTGTTAGG here?
Answer: -0.13 kcal/mol

Question: For TGCGACACGTGGGCGT, which “relative binding free energy” value is on record?
Answer: -0.3 kcal/mol

Question: With TCTGGCACGTGCAGGG as the sequence, how does the “relative binding free energy” value read?
Answer: -0.07 kcal/mol

Question: ATTGTCACGTGCAAAG was tested. Which “relative binding free energy” value did it give?
Answer: 0.1 kcal/mol

Question: For GTCGGCACGTGTTTTA, which “relative binding free energy” value is on record?
Answer: 0.14 kcal/mol

Question: Which “relative binding free energy” value does the source give for TGACTCACGTGTTTGG here?
Answer: 0.23 kcal/mol

Question: For GTGGTCACGTGGGACT, which “relative binding free energy” value is on record?
Answer: 0.04 kcal/mol

Question: With ATCTTCACGTGTGAGG as the sequence, how does the “relative binding free energy” value read?
Answer: 0.17 kcal/mol

Question: Which “relative binding free energy” value does the source give for TGGTTCACGTGCACGG here?
Answer: 0.28 kcal/mol

Question: With ATGAACACGTGGGGCT as the sequence, how does the “relative binding free energy” value read?
Answer: -0.06 kcal/mol

Question: Which “relative binding free energy” value does the source give for ATTGTCACGTGGAATG here?
Answer: 0.29 kcal/mol

Question: With TTTGACACGTGCGGAA as the sequence, how does the “relative binding free energy” value read?
Answer: 0.02 kcal/mol

Question: With GGTGTCACGTGGAAAA as the sequence, how does the “relative binding free energy” value read?
Answer: 0.43 kcal/mol

Question: How did the “relative binding free energy” value turn out when TTTCGCACGTGGTCTT was run?
Answer: -0.26 kcal/mol

Question: How did the “relative binding free energy” value turn out when ATAGGCACGTGGTCGA was run?
Answer: -0.08 kcal/mol

Question: TAGGCCACGTGTCGTG was tested. Which “relative binding free energy” value did it give?
Answer: -0.08 kcal/mol

Question: How did the “relative binding free energy” value turn out when AGTGTCACGTGACGGT was run?
Answer: 0.17 kcal/mol
